Experimental data as given in PubChem BioAssay AID1347430 (National Center for Advancing Translational Sciences (NCATS), 2020).
Screen size: about 91,000 compounds; about 130 (0.14%) were called active. Inconclusive means that the source gave no clear call. Such entries were picked first, then a sample of the others. Calls follow the shape of the dose curve; as a rule, active = well fitted inhibition curve with a large enough effect; inconclusive = small, poorly fitted or top-dose-only effect; inactive = flat fitted curve, though single readings scatter. Potencies beside an inconclusive call are fits to weak or partial responses and may not hold up.

tested on: Uracil-DNA glycosylase; test: Primary qHTS assay for inhibitors of Activation Induced Cytidine Deaminase (AID): UDG Counterscreen signal; conditions: FRET deamination/UDG coupled assay, UDG read, 4 h; series mostly up to 115 µM; also: nearly all actives have a fitted effect of over 65% in size
Potency is read from the fitted curve at half-maximal effect; tags tell the direction and shape of the fitted curve.

| SMILES | Potency |
| --- | --- |
| O=C(/C=C/c1ccco1)OCC(=O)C12CC3CC(CC(C3)C1)C2 | inactive |
| CCn1c(=O)cc(SCC(=O)Nc2ccc(C)c(F)c2)c2ccccc21 | inconclusive: 79.4 µM [inhibitor, partial curve, poor fit] |
| Cc1cccc(OCCCC(=O)Nc2sc3c(c2C(N)=O)CCC(C)C3)c1 (centres undefined) | inconclusive: 100 µM [inhibitor, partial curve, poor fit] |
| c1cncc(-c2nc(Oc3cccc4ccccc34)c3ccccc3n2)c1 | inconclusive: 89.1 µM [inhibitor, single point] |
| CNc1oc(-c2ccccc2F)nc1S(=O)(=O)c1ccc2c(c1)OCCO2 | active: 79.4 µM |
| Cc1ccc2c3cc(-c4ccccc4)cn3ccn12 | inactive |
| Cc1ccc(NC(=O)C2=C(c3ccccc3)NC(=S)NC2c2ccc(F)cc2)cc1 (centres undefined) | inactive |
| CC(=O)Nc1cccc(NC(=O)CN2C(=O)CCSc3ccccc32)c1 | inactive |
| CN1C(=O)Cc2cc(-c3csc(-c4ccc(F)cc4)n3)ccc21 | inconclusive: 44.7 µM [inhibitor, partial curve, poor fit] |
| O=C(COc1ccccc1Cl)OCc1cc(=O)n2nc(-c3cccs3)sc2n1 | inconclusive: 100 µM [inhibitor, single point] |
| COc1ccc(C(=O)OCc2cc(=O)n3nc(-c4cccs4)sc3n2)cc1 | inconclusive: 89.1 µM [inhibitor, single point] |
| O=[N+]([O-])c1cc(-c2nc(-c3ccccc3)no2)ccc1N1CCCCC1 | inconclusive: 89.1 µM [inhibitor, single point] |
| Cc1ccc(Nc2nc3ccccc3nc2NS(=O)(=O)c2cccs2)cc1 | inconclusive: 89.1 µM [inhibitor, single point] |
| Cc1oc2cc(OCc3ccccc3)ccc2c(=O)c1Oc1ccccc1 | inconclusive: 89.1 µM [inhibitor, single point] |
| Nc1c(S(=O)(=O)O)cc(Nc2ccc(Nc3nc(Cl)nc(Nc4ccc(S(=O)(=O)O)cc4)n3)c(S(=O)(=O)O)c2)c2c1C(=O)c1ccccc1C2=O | inactive |
| Clc1ccc(-n2c(Cc3ccccc3)nnc2SCc2nc(-c3cccs3)no2)cc1 | inconclusive: 56.2 µM [inhibitor, partial curve, poor fit] |
| COc1cccc(Cn2c(=O)cc(C)c3c(C)nn(C)c32)c1 | inactive |
| COc1cc(NC(=O)CN2C(=O)c3ccccc3Sc3ccc(C(=O)N4CCCC4)cc32)cc(OC)c1 | inconclusive: 39.8 µM [inhibitor, single point] |
| Cc1oc2ncnc(N3CCCCC3)c2c1C(=O)NCC1CCN(Cc2cccc(F)c2)CC1 | inconclusive: 89.1 µM [inhibitor, single point] |
